Reference: PubChem BioAssay AID1458 (National Center for Advancing Translational Sciences (NCATS), 2008)
In all, about 210,000 compounds went through this assay and about 5,900 (2.8%) were called active. Inconclusive means that the source gave no clear call. Such entries were picked first, then a sample of the others. Calls follow the shape of the dose curve; as a rule, active = well fitted activation curve with a large enough effect; inconclusive = small, poorly fitted or top-dose-only effect; inactive = no such curve, though single readings can be large or run the other way. Potencies of inconclusive entries are doubtful fits and often do not repeat.

Assay: qHTS Assay for Enhancers of SMN2 Splice Variant Expression; also: nearly all actives have a fitted effect of over 55% in size
Conditions: HEK293 SMN2-luciferase splicing reporter, luminescence, 30-36 h; series mostly up to 46.1 µM
Procedure, shortened: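 qHTS luciferase splicing reporter: luminescence rises when SMN2 exon 7 is included in transfected HEK293 cells. Compound exposure lasted 30-36 h at 37C, with 4.5 mM final sodium butyrate as control, followed by a ONE-Glo read.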
Potency is read from the fitted curve at half-maximal effect; tags tell the direction and shape of the fitted curve.

Q: With `COC(C(=O)Nc1ccc(F)cc1)c1ccccc1` (centres undefined) as the molecule, how does the Potency read?
A: The Potency was “inactive”.

Q: For `Cc1csc(NC(=O)C2COc3ccccc3O2)n1` (centres undefined), which Potency is on record?
A: The Potency was inconclusive: 2.24 µM [activator, partial curve].

Q: For `O=C(/C=C/c1cccs1)Nc1ccc([N+](=O)[O-])cc1`, which Potency is on record?
A: Its Potency is inconclusive: 35.5 µM [activator, single point].

Q: Which Potency does the source give for `COc1ccccc1NS(=O)(=O)c1cc(NC(=O)/C=C/c2cccs2)ccc1N1CCOCC1` here?
A: Its Potency is inconclusive: 5.62 µM [activator, single point].

Q: Which Potency does the source give for `Clc1ccc(Br)cc1-c1nc(-c2ccncc2)no1` here?
A: The Potency was inconclusive: 11.2 µM [activator, partial curve, poor fit].

Q: With `Cc1cnc(NC(=O)c2ccco2)s1` as the molecule, how does the Potency read?
A: Its Potency is inconclusive: 20 µM [activator, partial curve, poor fit].

Q: Which Potency does the source give for `Cc1c(NC(=O)c2ccc(Br)o2)cccc1C(=O)O` here?
A: The Potency was inconclusive: 11.2 µM [activator, partial curve].

Q: With `Cc1ccnc(SCC(=O)c2cccs2)n1` as the molecule, how does the Potency read?
A: Its Potency is inconclusive: 31.6 µM [activator, single point].

Q: For `COc1ccccc1C(=O)NC1=NC(c2ccc(Br)cc2)CC(=O)N1` (centres undefined), which Potency is on record?
A: The Potency was active: 11.2 µM.

Q: For `CC(C)N(CCNC(=O)c1oc(=O)c2ccccc2c1-c1ccccc1)Cc1ccco1`, which Potency is on record?
A: The Potency was “inactive”.

Q: With `CC1(C)CC(=O)C2=C(C1)OC(c1ccncc1)C(C#N)=C2N` (centres undefined) as the molecule, how does the Potency read?
A: The Potency was inconclusive: 11.2 µM [activator, partial curve, poor fit].

Q: For `Nc1c(-c2ccccc2)cnc2cc(-c3ccccc3)nn12`, which Potency is on record?
A: The Potency was active: 4.47 µM.

Q: With `Cc1ccccc1C(=O)n1nc(-c2cccnc2)nc1NCc1ccc(F)cc1` as the molecule, how does the Potency read?
A: The Potency was “inactive”.

Q: Which Potency does the source give for `CC(C)Oc1ccc(-c2nn(-c3ccccc3)cc2/C=c2\sc3ncnn3c2=O)cc1` here?
A: The Potency was “inactive”.

Q: For `O=C(NCc1ccco1)c1cccc(NC(=O)c2ccco2)c1`, which Potency is on record?
A: Its Potency is “inactive”.

Q: Which Potency does the source give for `Cc1ccc(Cl)c(OCC(=O)Nc2ccc3c(c2)OCCO3)c1` here?
A: Its Potency is active: 17.8 µM.

Q: For `O=C(Nc1cccc(Cl)c1)c1ccncc1`, which Potency is on record?
A: The Potency was inconclusive: 2.82 µM [activator, partial curve].

Q: For `N#Cc1ccc(NC(=O)COC(=O)CNC(=O)C2CCCCC2)cc1`, which Potency is on record?
A: Its Potency is “inactive”.

Q: Which Potency does the source give for `CCOC(=O)c1cnn(-c2cc(Oc3ccccc3C)ncn2)c1N` here?
A: The Potency was inconclusive: 5.62 µM [activator, single point].

Q: With `CC(C)(C)c1ccc(OCC(=O)Nc2ccc(-c3nc4cccnc4o3)cc2)cc1` as the molecule, how does the Potency read?
A: Its Potency is “inactive”.

Q: With `O=C(NCC1CCCO1)c1sc2cc(Cl)ccc2c1Cl` (centres undefined) as the molecule, how does the Potency read?
A: The Potency was active: 12.6 µM.

Q: Which Potency does the source give for `N#Cc1c(NC(=O)c2ccc(Cn3cc(Br)cn3)o2)sc2c1CCCCC2` here?
A: Its Potency is inconclusive: 25.1 µM [activator, single point].

Q: For `CCn1nnnc1-c1ccc(OC)c(S(=O)(=O)NCc2ccccc2)c1`, which Potency is on record?
A: Its Potency is inconclusive: 35.5 µM [activator, partial curve].

Q: Which Potency does the source give for `O=C1c2cccc3cccc(c23)C(=O)N1OS(=O)(=O)c1ccc(Br)cc1` here?
A: The Potency was “inactive”.

Q: With `CCn1cc(Br)c(C(=O)N2CCN(c3ccccc3)CC2)n1` as the molecule, how does the Potency read?
A: Its Potency is inconclusive: 35.5 µM [activator, single point].

Q: Which Potency does the source give for `CN(C(=O)c1cccnc1)c1nnc(-c2cccnc2)s1` here?
A: The Potency was “inactive”.

Q: With `COC(=O)C(Cc1ccc(OC(=O)c2ccc(C(F)(F)F)cc2)cc1)N1Cc2ccccc2C1=O` (centres undefined) as the molecule, how does the Potency read?
A: Its Potency is inconclusive: 17.8 µM [activator, single point].

Q: With `CCCCNC(=S)N(Cc1c(C)noc1C)c1ccccc1` as the molecule, how does the Potency read?
A: The Potency was inconclusive: 0.0708 µM [activator, full curve].

Q: Which Potency does the source give for `Cc1ccccc1C(=O)n1nc(-c2ccco2)nc1NCc1cccs1` here?
A: Its Potency is “inactive”.

Q: With `CCc1nnc(NC(=O)CSc2nnc(CNc3cccc(Cl)c3)n2CC)s1` as the molecule, how does the Potency read?
A: The Potency was inconclusive: 0.316 µM [activator, full curve].

Q: With `O=C1c2ccccc2NC(c2ccccn2)N1c1ccc(Cl)cc1` (centres undefined) as the molecule, how does the Potency read?
A: Its Potency is inconclusive: 14.1 µM [activator, partial curve].

Q: Which Potency does the source give for `CC1CCN(C(=O)CNC(=O)Cn2ccc3ccccc3c2=O)CC1` here?
A: The Potency was “inactive”.

Q: For `O=C(COc1ccccc1/C=C\c1nc(O)c([N+](=O)[O-])c(=O)[nH]1)Nc1ccccc1`, which Potency is on record?
A: Its Potency is inconclusive: 35.5 µM [activator, single point].

Q: With `O=C(Cc1ccc2c(c1)CCCC2)Nc1ccc2ccccc2c1` as the molecule, how does the Potency read?
A: The Potency was inconclusive: 12.6 µM [activator, partial curve, poor fit].

Q: For `CCOc1cc(C(=O)N2CCCC2)cc(OCC)c1OCC`, which Potency is on record?
A: The Potency was inconclusive: 8.91 µM [activator, partial curve, poor fit].

Q: For `Cc1ccc2c(C(=O)N3CCN(c4ccccc4)CC3)cc(-c3cccnc3)nc2c1C`, which Potency is on record?
A: The Potency was “inactive”.

Q: For `Cc1cccc(CCNC(=O)COc2cc(=O)n(C)c3ccccc23)c1`, which Potency is on record?
A: The Potency was inconclusive: 8.91 µM [activator, partial curve].

Q: With `Cc1ccc(S(=O)(=O)N/N=C\c2cc3c(cc2Br)OCO3)cc1` as the molecule, how does the Potency read?
A: The Potency was inconclusive: 12.6 µM [activator, single point].

Q: For `CCc1cccc(NC(=O)Cn2c(=O)n(CCC(=O)NCC3CCCO3)c(=O)c3cc(OC)c(OC)cc32)c1` (centres undefined), which Potency is on record?
A: Its Potency is inconclusive: 4.47 µM [activator, single point].

Q: For `O=c1cc(-c2ccccc2)oc2ccccc12`, which Potency is on record?
A: The Potency was inconclusive: 14.1 µM [activator, partial curve, poor fit].

Q: With `O=C(Nc1nnc(C2CC2)s1)c1ccccn1` as the molecule, how does the Potency read?
A: The Potency was active: 2.82 µM.

Q: Which Potency does the source give for `Cc1cc(N2CCN(C)CC2)ccc1NC(=O)c1c2c(nc3ccccc13)CCN(Cc1ccccc1)C2` here?
A: The Potency was “inactive”.

Q: Which Potency does the source give for `CCOc1ccc(NC(=O)Nc2cc(-c3ccccc3)sc2C(=O)OC)cc1` here?
A: Its Potency is “inactive”.

Q: For `CC(C)Oc1cccc(C(=O)NC(=S)Nc2cccnc2)c1`, which Potency is on record?
A: The Potency was inconclusive: 11.2 µM [activator, single point].

Q: Which Potency does the source give for `CCOC(=O)Cc1csc(/N=C/c2c(O)n(-c3ccc(C)c(C)c3)c(=O)c3ccccc23)n1` here?
A: Its Potency is “inactive”.

Q: For `COc1cccc(-n2nc3c(=S)[nH]nc(C)c3c2C)c1`, which Potency is on record?
A: Its Potency is inconclusive: 17.8 µM [activator, partial curve, poor fit].

Q: Which Potency does the source give for `CC1CC(=O)N(CC(=O)Nc2ccc(F)cc2F)c2ccccc2S1` (centres undefined) here?
A: The Potency was “inactive”.

Q: With `COc1ccc(Nc2nccc3c2nnn3C)cc1` as the molecule, how does the Potency read?
A: The Potency was inconclusive: 22.4 µM [activator, single point].

Q: With `O=C(NCCc1ccccc1)c1ccc(CSc2nc3ccncc3n2Cc2ccccc2F)cc1` as the molecule, how does the Potency read?
A: Its Potency is inconclusive: 11.2 µM [activator, partial curve].

Q: With `CCOC(=O)c1cnc2c(-c3ccc(Cl)cc3)cnn2c1C` as the molecule, how does the Potency read?
A: The Potency was active: 11.2 µM.

Q: Which Potency does the source give for `O=c1c2sccc2nc(SCc2cc(=O)n3cc(Cl)ccc3n2)n1Cc1ccccn1` here?
A: Its Potency is “inactive”.

Q: For `N#C/C(=C\c1ccncc1)c1nc2ccccc2[nH]1`, which Potency is on record?
A: Its Potency is “inactive”.

Q: With `CC(C)c1ccc(-c2nnn(Cc3nc4ccccc4s3)n2)cc1` as the molecule, how does the Potency read?
A: The Potency was inconclusive: 5.62 µM [activator, partial curve].

Q: Which Potency does the source give for `COC(=O)c1cc(OC)c(OC)cc1NC(=O)C1CCCO1` (centres undefined) here?
A: The Potency was inconclusive: 5.01 µM [activator, full curve].

Q: For `O=C(Nc1nnc(-c2ccccc2F)s1)C1CCCO1` (centres undefined), which Potency is on record?
A: The Potency was active: 5.01 µM.

Q: For `CCC(C)(C)NC(=O)C(c1cccc(OC)c1)N(C(=O)c1ccn[nH]1)c1cccc(OC)c1` (centres undefined), which Potency is on record?
A: The Potency was inconclusive: 39.8 µM [activator, partial curve, poor fit].

Q: With `O=C(Nc1nccs1)C(=O)c1c[nH]c2ccccc12` as the molecule, how does the Potency read?
A: The Potency was inconclusive: 11.2 µM [activator, single point].

Q: For `COc1ccc2cc3cc(C(=O)Nc4cc(OC)c(OC)c(OC)c4)oc3nc2c1`, which Potency is on record?
A: The Potency was “inactive”.

Q: With `N#CC(C(=O)c1ccco1)c1ccccn1` (centres undefined) as the molecule, how does the Potency read?
A: The Potency was inconclusive: 31.6 µM [activator, single point].

Q: Which Potency does the source give for `COc1cccc(/C=N/N=C(\N)c2nonc2N)c1O` here?
A: Its Potency is inconclusive: 3.55 µM [activator, single point].

Q: With `Cc1[nH]n(C(N)=S)c(=O)c1N=Nc1cc(-c2ccc(Br)cc2)[nH]n1` as the molecule, how does the Potency read?
A: The Potency was inconclusive: 35.5 µM [activator, single point].

Q: For `CCOc1ccc2nc(NC(=O)COC)sc2c1`, which Potency is on record?
A: Its Potency is active: 11.2 µM.

Q: For `Fc1ccc(OCc2nc(-c3cccs3)no2)cc1`, which Potency is on record?
A: Its Potency is inconclusive: 25.1 µM [activator, single point].

Q: Which Potency does the source give for `COc1ccccc1-c1c(C(F)(F)F)oc2cc(OC(=O)c3ccccc3[N+](=O)[O-])ccc2c1=O` here?
A: Its Potency is inconclusive: 35.5 µM [activator, single point].

Q: For `COc1ccc(C(=O)Nc2ccc3c(c2)nc(CCNC(C)=O)n3C)cc1`, which Potency is on record?
A: The Potency was inconclusive: 31.6 µM [activator, single point].

Q: For `N=C1/C(=C\c2ccc(OC(=O)c3ccco3)cc2)C(=O)N=C2SC=NN12`, which Potency is on record?
A: The Potency was inconclusive: 3.55 µM [activator, single point].

Q: Which Potency does the source give for `Cc1cn(S(=O)(=O)c2ccc(F)c(Cl)c2)cn1` here?
A: Its Potency is “inactive”.

Q: With `NC(=O)c1sc2nc(-c3ccco3)ccc2c1N` as the molecule, how does the Potency read?
A: The Potency was inconclusive: 12.6 µM [activator, single point].

Q: With `CSc1nc(N)nc(SC2C=CCCC2)c1C#N` (centres undefined) as the molecule, how does the Potency read?
A: Its Potency is inconclusive: 15.8 µM [activator, single point].

Q: With `Cc1ccccc1NC(=O)c1c(NC(=O)C(F)(F)F)sc2c1CCCCC2` as the molecule, how does the Potency read?
A: Its Potency is “inactive”.

Q: With `CCc1ccc(Oc2cc(Cl)nc(N)n2)cc1` as the molecule, how does the Potency read?
A: The Potency was inconclusive: 5.01 µM [activator, partial curve].

Q: With `COC(=O)/C=c1/sc2nc3ccccc3n2c1=O` as the molecule, how does the Potency read?
A: The Potency was inconclusive: 2 µM [activator, full curve, poor fit].

Q: Which Potency does the source give for `CCn1cc(C(=O)O)c(=O)c2cc(F)c(N3CCN(S(=O)(=O)c4ccc(NC(C)=O)cc4)CC3)cc21` here?
A: Its Potency is inconclusive: 35.5 µM [activator, single point].

Q: Which Potency does the source give for `Cc1cc(O)c(NC(=O)c2ccco2)cc1C` here?
A: Its Potency is active: 11.2 µM.
